# Data as given in paper PMC4336329 (PLoS ONE, 2015).
# Hit rate of the full screen: of about 310,000 compounds, about 2,200 (0.71%) showed an effect of 50% or more. Effects have a minus sign here. The list shows a part of the results.
# Molecular target: human ether-à-go-go-related gene (hERG) potassium channel (human, UniProt Q12809)
# Assay: primary screen, population patch clamp on CHO cells stably expressing hERG
# Chain of human ether-à-go-go-related gene (hERG) potassium channel (Q12809 whole entry, looked up): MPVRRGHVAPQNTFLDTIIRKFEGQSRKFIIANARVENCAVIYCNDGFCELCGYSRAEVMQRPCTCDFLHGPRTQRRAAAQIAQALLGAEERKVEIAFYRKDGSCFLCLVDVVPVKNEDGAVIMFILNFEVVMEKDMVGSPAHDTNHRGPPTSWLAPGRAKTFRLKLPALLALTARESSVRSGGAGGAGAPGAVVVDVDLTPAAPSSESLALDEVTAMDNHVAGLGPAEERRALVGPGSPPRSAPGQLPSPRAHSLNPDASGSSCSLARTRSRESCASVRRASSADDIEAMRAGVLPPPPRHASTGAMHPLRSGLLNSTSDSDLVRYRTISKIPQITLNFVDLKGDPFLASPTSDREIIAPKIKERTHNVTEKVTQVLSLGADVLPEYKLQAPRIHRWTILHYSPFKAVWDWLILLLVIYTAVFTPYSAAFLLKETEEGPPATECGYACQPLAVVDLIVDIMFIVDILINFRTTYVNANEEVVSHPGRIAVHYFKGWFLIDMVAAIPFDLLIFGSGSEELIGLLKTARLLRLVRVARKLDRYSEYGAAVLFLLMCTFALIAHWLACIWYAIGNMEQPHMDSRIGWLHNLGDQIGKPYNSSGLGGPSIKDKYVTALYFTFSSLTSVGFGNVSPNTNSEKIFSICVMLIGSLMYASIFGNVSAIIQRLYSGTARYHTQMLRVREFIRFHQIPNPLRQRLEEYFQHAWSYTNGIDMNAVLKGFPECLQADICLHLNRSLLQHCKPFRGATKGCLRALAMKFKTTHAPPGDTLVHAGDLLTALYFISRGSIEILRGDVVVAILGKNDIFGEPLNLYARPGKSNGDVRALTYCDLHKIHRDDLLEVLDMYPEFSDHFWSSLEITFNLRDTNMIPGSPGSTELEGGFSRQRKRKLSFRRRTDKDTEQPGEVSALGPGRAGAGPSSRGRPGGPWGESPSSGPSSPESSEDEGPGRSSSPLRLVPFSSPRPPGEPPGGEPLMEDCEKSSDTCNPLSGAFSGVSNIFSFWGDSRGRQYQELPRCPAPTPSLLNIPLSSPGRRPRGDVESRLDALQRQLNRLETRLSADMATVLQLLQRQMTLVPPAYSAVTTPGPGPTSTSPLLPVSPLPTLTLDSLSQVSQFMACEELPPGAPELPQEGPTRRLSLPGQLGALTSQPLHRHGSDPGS
row,SMILES,"hERG current change (%, negative = inhibition) at 1uM [%]"
1,CN(C(=O)c1ccccc1F)C(c1ccccc1)c1ccccc1,9.05
2,Cc1sc2nc(SCc3ccccc3)n(Cc3ccco3)c(=O)c2c1C,-6.43
3,CC(C)(C)c1ccc(-c2nc(-c3ccncc3)no2)cc1,3.82
4,Cc1nc2ccccc2n1CC(=O)NCc1ccccc1,19.3
5,O=C(COc1ccc2c(c1)oc(=O)c1ccccc12)NCC1CCC(C(=O)O)CC1 (centres unmarked),13.3
6,O=C(CN1CCN(Cc2ccccc2)CC1)NC(=O)NCc1ccco1,-12.3
7,C/C(CC(=O)NCc1ccco1)=N\NC(=O)C(c1ccccc1)c1ccccc1,6.69
8,CC(=O)N1CCN(C(=O)COc2ccc(N(C)S(=O)(=O)c3cccs3)cc2)CC1,12.9
9,NNC(=O)CC(=O)NC1(Cc2ccc(O)cc2)CCCCC1,-0.984
10,CC(=O)Nc1ccc(NC(=O)C(C)N2CCN(S(=O)(=O)c3ccc(C)cc3)CC2)cc1 (centres unmarked),2.7
11,COc1cccc(-c2nc(CS(=O)(=O)CC(=O)N3CCc4ccccc43)c(C)o2)c1,14.3
12,COc1ccc(NC(=O)Cn2nnc(C(=O)NCc3ccco3)c2N)cc1,17.1
13,O=C1N=C(N2CCCCC2)SC1=C1CCCC1,5.7
14,O=Cc1cccc(OC(=O)Nc2ccccc2)c1,5.69
15,NS(=O)(=O)c1ccc(CCNC(=O)CCc2nc3sc4c(c3c(=O)[nH]2)CCCC4)cc1,13.8
16,CS(=O)(=O)c1cccc(S(=O)(=O)N2CCCCCC2)c1,21.2
17,CC(=O)c1sc(N/N=C/c2cccc([N+](=O)[O-])c2)nc1C,16.8
18,O=C(Nc1ccc(S(=O)(=O)Nc2ccccn2)cc1)c1cccc([N+](=O)[O-])c1,5.1
19,Cc1nc2ccc(Br)cn2c1C(=O)N/N=C\c1ccccc1[N+](=O)[O-],15.8

row,SMILES,"hERG current change (%, negative = inhibition) at 1uM [%]"
1,NC(=O)c1ccc(NC(=O)COC(=O)c2cc([N+](=O)[O-])ccc2N2CCOCC2)cc1,5.94
2,CC1(C)Cc2cccc(C(=O)NC3CCN(Cc4ccccc4)CC3)c2O1,1.5
3,COc1c(OC(C)=O)ccc(/C=C/c2ccc3cccc(OCc4ccccc4)c3n2)c1[N+](=O)[O-],18.7
4,Cc1cccc(-c2nnn(Cc3nnc(NC(=O)c4ccccc4)s3)n2)c1,5.74
5,Cc1cc(S(=O)(=O)NCC(C)C)ccc1OCC(=O)NC1CC1,7.56
6,O=C(CCCN1C(=O)/C(=C\c2cccs2)SC1=S)Nc1ccc(O)cc1,9.34
7,COc1cc(OC)c(NC(=O)c2ccc(Br)o2)cc1Cl,0.227
8,CCOC(=O)CSc1n[nH]c(-c2cccnc2)n1,11
9,CC(C)(C)C1C/C(=C/c2ccco2)C(=O)/C(=C/c2ccco2)C1 (centres unmarked),-1.88
10,Cc1nc2sc(C(c3cccs3)N3CCN(c4ccccc4)CC3)c(O)n2n1 (centres unmarked),5.92
11,O=C(CCc1nc2ccccc2[nH]1)Nc1ccccc1,3.53
12,COc1ccc(-c2noc(-c3ccccc3Cl)n2)cc1OC,15.3
13,CN1CCN(c2oc(COc3ccc(-c4ccccc4)cc3)nc2C#N)CC1,3.72
14,COc1cccc(C2c3c(oc4ccccc4c3=O)C(=O)N2CCCN2CCOCC2)c1 (centres unmarked),3.27
15,CCOC(=O)c1ccc(CNC(=O)c2n[nH]c(=O)c3ccccc23)o1,14.7
16,CN(C)/C=N/c1nc2ncc(-c3ccc(Cl)cc3)c(/N=C/N(C)C)n2n1,13.5
17,Cc1cc(C(=O)N2CCN(CCc3ccccc3)CC2)no1,-0.319
18,COc1ccc(NC(=O)NCCCN2CCN(c3cc(C)ccc3C)CC2)cc1,-80.4
19,CCCc1cc(=O)[nH]c(SCC(=O)Nc2ccc3c(c2)CCC3)n1,20

row,SMILES,"hERG current change (%, negative = inhibition) at 1uM [%]"
1,NC(CSC12CC3CC(CC(C3)C1)C2)C(=O)O (centres unmarked),11
2,CCC(C)c1ccc(NC(=S)NCc2cccs2)cc1 (centres unmarked),5.77
3,O=S(=O)(c1cccc(Cl)c1)N1CN(CC2CCCO2)c2nc3ccccc3nc21 (centres unmarked),9.19
4,CCOC(=O)C1=C(C)NC(=O)NC1c1ccc(OCC(=O)OC)c(OC)c1 (centres unmarked),6.8
5,COc1cccc2cc(C(=O)NCc3ccc(C)cc3)c(=N)oc12,9.88
6,Cc1ccc2c(cnn2C(=O)CCC(=O)N2CCCCC2C)c1 (centres unmarked),10.7
7,CN(C)C(=S)NC1CCS(=O)(=O)C1 (centres unmarked),6.72
8,COc1ccc(N2C(=O)CC(N3CCN(S(=O)(=O)c4c(F)cccc4F)CC3)C2=O)cc1OC (centres unmarked),13.5
9,COC(=O)c1ccc(-c2nc(O)c3cnccn23)cc1,11.5
10,COc1cc(CNCc2ccccn2)ccc1OCc1ccc(Cl)cc1.Cl,-7.26
11,O=C(NN=C1CCCC1)c1n[nH]c2c1CCCC2,8.46
12,Nc1nonc1-n1nnc(C(=O)N/N=C/c2ccccn2)c1CNc1ccccc1,11.5
13,COCCCNC(=O)c1c(NC(=O)c2ccco2)n(Cc2ccccc2)c2nc3ccccc3nc12,13.7
14,CNS(=O)(=O)c1cccc(C(=O)OCC(=O)N2CC(C)OC(C)C2)c1 (centres unmarked),12
15,CC1CCN(CC(=O)Nc2ccc(N3CCCCCC3)cc2)CC1.O=C(O)C(=O)O,9.58
16,CCOc1cc(N2CCOCC2)c(OCC)cc1NC(=O)CN1C(=O)NC(CC(C)C)C1=O (centres unmarked),-12.7
17,COc1ccc(-c2nc(Cn3c(SCc4ccc(C)cc4)nc4ccncc43)c(C)o2)cc1OC,9.17
18,O=C(NCc1ccc(F)cc1)C1CCCN1S(=O)(=O)c1cccc2nsnc12 (centres unmarked),8.83
